Test results as given in PubChem BioAssay AID504832 (National Center for Advancing Translational Sciences (NCATS), 2011).
Screen size: about 310,000 compounds; about 18,000 (5.8%) were called active. The shares of active, inactive and inconclusive entries below differ from those in the screen. Calls follow the shape of the dose curve; as a rule, active = well fitted inhibition curve with a large enough effect; inconclusive = small, poorly fitted or top-dose-only effect, or another doubt; inactive = no such curve, though single readings can be large or run the other way. No potency is given beside an inconclusive call; the fits are too rough.

Assay: Primary qHTS for delayed death inhibitors of the malarial parasite plastid, 48 hour incubation
Settings: P. falciparum luciferase growth in erythrocytes; series mostly up to 28.7 µM; activity change, negative = inhibition: at the top concentration
Summary of the method: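 Luminescence readout; reporter = integrated firefly luciferase in P. falciparum. RBC culture at 2% hematocrit, 0.1% parasitemia final, 37 C/5% CO2; decreased signal taken as growth inhibition.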
% is scaled to controls: 0 for no effect and ±100 for the full control effect; potency is read from the fitted curve at half-maximal effect; tags tell the direction and shape of the fitted curve.

Row | SMILES | Potency | activity change, negative = inhibition
1 | COc1ccc(CCNC(=O)CCSc2nc(-c3ccco3)cc(C(F)(F)F)n2)cc1 | inconclusive [inhibitor, partial curve] | –
2 | Cc1occc1C(=O)N/N=C/c1ccc(N(C)C)cc1 | – | inactive: 267%
3 | COc1cc(OC)c(C(=O)Nc2cccc3ccccc23)cc1OC | – | inactive: 16.7%
4 | Cc1nc2ccccc2nc1OCC(=O)N1CCN(c2ccccc2)CC1 | inconclusive [inhibitor, partial curve, poor fit] | –
5 | Cc1occc1C(=O)N1CCCC(Nc2ccc(C(C)C)cc2)C1 (centres undefined) | inconclusive [inhibitor, partial curve, poor fit] | –
6 | Cc1oc(-c2ccc(C(F)(F)F)cc2)nc1CN(Cc1ccccn1)C[C@@H]1CCC(=O)N1 | inconclusive [inhibitor, partial curve, poor fit] | –
7 | CN(C)/C=C/C(=O)c1ccc(C(F)(F)F)cc1F | – | inactive: 52.5%
8 | Cc1n[nH]c(C)c1S(=O)(=O)N1CCN(S(=O)(=O)c2ccccc2C#N)CC1 | – | inactive: -4.44%
9 | CCN(CCO)C1CC(=O)N(c2ccccc2C)C1=O (centres undefined) | – | inactive: 30.4%
10 | Cc1ccnc(NC(=O)C(Cc2ccccc2)NC(=O)c2ccccc2)c1 (centres undefined) | inconclusive [inhibitor, single point] | –
11 | CCOc1ccccc1NC(=O)CSc1ccc2nnc(-c3cccnc3)n2n1 | inconclusive [inhibitor, single point] | –
12 | CC(NS(=O)(=O)c1ccccc1)C(=O)NC1CCCC1 (centres undefined) | – | inactive: 5.95%
13 | COc1ccc(NC(=O)CN2CCC(n3c(C)nc4cc(F)ccc43)CC2)c(OC)c1 | inconclusive [inhibitor, full curve] | –
14 | CS(=O)(=O)Nc1ccc(C(=O)CC(=O)Nc2ccc([N+](=O)[O-])cc2)cc1 | inconclusive [inhibitor, partial curve, poor fit] | –
15 | O=C(CN1C(=O)C2CCCCC2C1=O)NC1CCCc2ccccc21 (centres undefined) | inconclusive [inhibitor, single point] | –
16 | O=C(Nc1ccc(F)cc1)c1nsc(Cl)c1Cl | inconclusive [inhibitor, single point] | –
17 | Oc1ccccc1CN(Cc1ccco1)CC(O)COCc1ccc(Cl)cc1 (centres undefined) | active: 2.94 µM | –
18 | COCCn1nnnc1C(c1ccccc1OC)N1CCN(c2ccccc2)CC1 (centres undefined) | inconclusive [inhibitor, partial curve, poor fit] | –
19 | COC(=O)c1ccccc1-c1ccc(/C=N/NC(N)=O)o1 | – | inactive: 21.3%
20 | O=C(Nc1ccncc1)c1c(Cl)cccc1Cl | inconclusive [inhibitor, single point] | –
21 | COC(=O)C1=C(Cn2cnc3ccccc32)NC(=O)NC1c1cc(C)ccc1C (centres undefined) | inconclusive [inhibitor, partial curve, poor fit] | –
22 | c1csc(C(c2nnnn2C2CCCCC2)N2CCN(c3nc4ccccc4s3)CC2)c1 (centres undefined) | inconclusive [inhibitor, single point] | –

Row | SMILES | Potency | activity change, negative = inhibition
23 | COc1cc(NC(=O)CSc2nc3ccccc3cc2Cc2ccccc2)cc(OC)c1 | active: 11.7 µM | –
24 | C[N+]1(CCN2C(=O)C3CC=C(Cl)CC3C2=O)CCOCC1 (centres undefined) | – | inactive: -5.13%
25 | Cc1c(C(=O)NCc2cccnc2)oc2ccc(S(=O)(=O)N3CCCC(C)C3)cc12 (centres undefined) | inconclusive [inhibitor, single point] | –
26 | CC(C)(C)OC(=O)NCCCC[C@H](NC(=O)c1[nH]cnc1C(=O)Nc1ccc(Cl)cc1)C(=O)OC(C)(C)C | active: 5.22 µM | –
27 | Cc1noc2ncnc(Oc3ccc(C(C)(C)C)cc3)c12 | inconclusive [inhibitor, partial curve, poor fit] | –
28 | CCCOc1ccccc1OCC(=O)N1CCN(S(=O)(=O)c2ccc(Cl)cc2)CC1 | inconclusive [inhibitor, partial curve] | –
29 | CCN(CC)S(=O)(=O)c1ccc(-n2cnc3cc(C)c(C)cc32)nc1 | inconclusive [inhibitor, single point] | –
30 | CC(=O)Nc1ccc(SCCN2CC[C@@H](C(C)(C)C)CCC2=O)cc1 | inconclusive [inhibitor, single point] | –
31 | O=C(CN1CCCC1)Nc1ccc(-c2nc3cc(NC(=O)CN4CCCC4)ccc3o2)cc1 | active: 2.33 µM | –
32 | CCOC(=O)C(CC)Sc1nc2c(c(=O)[nH]c(=O)n2C)n1C/C=C(/C)Cl (centres undefined) | inconclusive [inhibitor, partial curve, poor fit] | –
33 | Cc1ccc(-c2cn(-c3ccccc3)c3[n+]2CCCS3)cc1 | active: 1.04 µM | –
34 | Cc1cc(=O)oc2c(C)c(OC(C)C(=O)Nc3ccc(N4CCC(C)CC4)cc3)ccc12 (centres undefined) | active: 7.38 µM | –
35 | COCCN(C(=O)CNC(=O)c1ccco1)C(C(=O)NC1CCCCC1)c1cccnc1 (centres undefined) | – | inactive: 7.94%
36 | O=C(Nc1ccc(-c2csc(Nc3ccc(Cl)cc3)n2)cc1)c1cccc(C(F)(F)F)c1 | inconclusive [inhibitor, single point] | –
37 | CS(=O)(=O)c1cnc(-c2ccccc2)nc1Oc1ccc(F)cc1 | active: 13.1 µM | –
38 | COc1c(F)c(F)c(C(=O)Nc2ccc(N3CCN(C(C)=O)CC3)c(Cl)c2)c(F)c1F | inconclusive [inhibitor, partial curve] | –
39 | Cc1cc(NC(=O)CSCC(=O)Nc2ccccc2N2CCCCC2)no1 | active: 13.1 µM | –
40 | Cc1ccccc1/C=C/C(=O)c1ccc([N+](=O)[O-])o1 | inconclusive [inhibitor, single point] | –
41 | c1ccc(-c2nc3cnccn3c2Nc2ccc3c(c2)OCCO3)cc1 | inconclusive [inhibitor, single point] | –
42 | CCOC(=O)N1CCC(NC(=O)C2=CCN(S(=O)(=O)c3ccc(OC)cc3)CC2)CC1 | inconclusive [inhibitor, single point] | –
43 | CCn1c(SCc2nc3ccccc3[nH]2)nnc1-c1cccs1 | – | inactive: 0%
44 | Cn1c(=O)c(/C=C/c2ccc(F)cc2)nc2ccccc21 | inconclusive [inhibitor, single point] | –
